Assay results published in ChEMBL document CHEMBL1201862, “PubChem BioAssay data set” (2004).
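How tested: cells in 96-well plates exposed to compound for 48 hours at five concentrations. GI50: concentration for 50% inhibition of growth.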 Activity calls are given as the source filed them. No stated cut-off is given here; in the data, active = GI50 up to about 1.1 µM and inactive = higher.

tested on: NCI-H322M; assay: NCI tumour cell line growth inhibition, 48 h

Structure (SMILES)	GI50
C(=C\c1ccco1)/c1cccc(/C=C/c2ccco2)n1	inactive: > 50 µM
CC(=O)c1ccc(Oc2c3ccccc3nc3ccccc23)cc1	inactive: 18.4 µM
CN(C)c1nc(N)c(C#N)c(C#N)c1C#N	inactive: > 10 µM
CC(C)(C)N(Cc1ccc2c(c1)OCO2)C(=O)/C=C\[S+]([O-])c1ccccc1 (centres undefined)	inactive: 12.1 µM
Clc1ccc(CSc2ncnc3c2ncn3C2CCCCO2)cc1 (centres undefined)	inactive: 40.2 µM
Cc1nnc2ccccc2c1O	inactive: > 100 µM
O=C(Oc1ccc(S(=O)(=O)F)cc1F)c1ccccc1Cl	inactive: 52.2 µM
COc1c2c(c3c(c1OC)c(=O)c1ccccc1n3C)OCO2	inactive: > 100 µM
CCc1ccc2nccc(NCCCN(C)C)c2c1[N+](=O)[O-]	inactive: > 100 µM
COc1ccc(C(SCC(N)C(=O)O)(c2ccc(OC)cc2)c2ccc(OC)cc2)cc1 (centres undefined)	inactive: 14.7 µM
CCN(CCCN(CC)C(=O)Nc1c(C)cccc1C)C(=O)Nc1c(C)cccc1C	inactive: > 100 µM
CCOC(=O)/C=C/c1nc(C#N)c(N)o1	inactive: > 100 µM
c1ccc(N2N=NC3C4CC(C5c6ccccc6C45)C32)cc1 (centres undefined)	inactive: 59.7 µM
O=[N+]([O-])c1cccc(C2=NOC3CCCC23)c1 (centres undefined)	inactive: > 100 µM
O=C1CS(=O)(=O)C(c2cccc(Oc3ccccc3)c2)N1c1ccccc1 (centres undefined)	inactive: 34.8 µM
Cc1cc(C)nc(SCCc2cccc[n+]2C)n1	inactive: > 100 µM
Cn1c2cc(Cl)ccc2c2ccc3c(c21)C(=O)C=CC3=O	inactive: > 100 µM
CC(=O)[C@@]1(c2ccccc2)CC2(CCN(C)CC2)O[C@H]1C	inactive: > 100 µM
O=c1[nH]c(-c2ccc(Cl)cc2)cc2ccsc12	inactive: 3.96 µM
Cc1nn(C(=O)Cc2ccccc2)c2c1C(c1ccccc1)SC(=N)N2 (centres undefined)	inactive: > 100 µM
O=c1c2c3c(sc2nc(S)n1-c1ccccc1)CCCc1ccc([N+](=O)[O-])cc1-3	inactive: > 100 µM
CC(C)(C)/N=C/N1C=Cc2nc3ccccc3cc2C1	inactive: > 100 µM
CC1CC(C)CC(C)C(O)/C(C#N)=C/C=C/CC(C2CCCC2C(=O)O)OC(=O)CC(O)C(C)C1 (centres undefined)	active: 0.0228 µM

Structure (SMILES)	GI50
COc1cc2nc(-c3cccs3)nc(N3C(c4cc(OC)c(OC)c(OC)c4)=NNC(=O)c4ccccc43)c2cc1OC	inactive: 24.3 µM
NC(=S)N1N=C2c3ccccc3CC[C@H]2[C@@H]1c1ccc(Cl)cc1	inactive: 30.8 µM
Cc1ccc2c(/C=C/c3ccc(N(C)C)cc3)ccc(C(C)C)cc1-2	inactive: > 100 µM
CN(C(=O)C12C3C4C5C3C1(C(=O)C13C6C7C8C6C1C8C73)C5C42)C(C)(C)C (centres undefined)	inactive: > 50 µM
Nn1c(CNc2ccc(-c3nnc(Nc4ccc(Cl)cc4)n3N)cc2)nnc1Nc1ccc(Cl)cc1	inactive: > 100 µM
CCOC(=O)c1cnc(N(C)C)nc1SC(=N)N	inactive: > 100 µM
N#CNc1nc(C(=O)Nc2ccc(Cl)cc2)cc(-c2ccccc2)n1	inactive: > 100 µM
CCOC(=O)CN1C(=O)c2cccc3cc([N+](=O)[O-])cc(c23)C1=O	inactive: 12.6 µM
COC(=O)C1C(O)C(C)C(O)C(C)C=C(C)C2=C3C(=C(C)C(=O)c4c(O)c(c(C)c(OC(C)=O)c43)NC(=O)C(C)=C/C=C\C(C)C(O)C(C)C1O)OCO2 (centres undefined)	inactive: 49.1 µM
O=C(O)C1=C(CO)Oc2cc3c(cc2C1c1ccc2c(c1)OCO2)OCO3 (centres undefined)	inactive: > 100 µM
C=CC(Cl)(CBr)CCC(Br)=C(C)C (centres undefined)	inactive: 60.3 µM
O=C(Nc1ccc(Cl)cc1C(=O)O)c1ccc([N+](=O)[O-])cc1	inactive: 19.9 µM
O=S1(=O)C(=C(c2ccccc2)c2ccccc2)S(=O)(=O)c2ccccc21	inactive: > 100 µM
Cc1cccc(C(C)(C)C)c1NC(=O)CC1Sc2ccccc2NC1=O (centres undefined)	inactive: > 100 µM
CCCCCCCCCCCCNC(=S)OCCCC	inactive: > 100 µM
N#CC(=S)Nc1ccc(F)cc1	inactive: 75.9 µM
Cn1ccnc1Sc1ccc(/C=N/NC(=O)c2ccccc2[N+](=O)[O-])cc1[N+](=O)[O-]	inactive: 74 µM
Cc1ccc(/N=N/c2c(C)nn(C(=O)CC(=O)Nc3ccc(Cl)cc3)c2C)cc1C	inactive: > 100 µM
Clc1ccc2[nH]c(CCSCCc3nc4ccc(Cl)cc4[nH]3)nc2c1	active: 0.75 µM
c1nc(N2CC2)c2cnn(C3CCCCO3)c2n1 (centres undefined)	inactive: > 100 µM
Cc1ccc(O)c(C(c2ccc([N+](=O)[O-])cc2)c2cc(C)ccc2O)c1	inactive: 18.6 µM
O=C1OC(CS(=O)(=O)c2ccccc2)CC1O (centres undefined)	inactive: > 100 µM
Cc1cc2c(=O)c3ccccc3oc2c(C#N)c1C	inactive: 84.5 µM

Structure (SMILES)	GI50
O=C1c2c(nc3ccccc3c2-c2ccccc2)CN1Nc1ccccn1	inactive: > 100 µM
NCCN1C(=O)c2ccccc2C1c1ccc(Cl)cc1 (centres undefined)	inactive: > 100 µM
Cc1ccccc1Nc1cn(COCc2ccccc2)c(=O)[nH]c1=O	inactive: > 100 µM
CCN(CC)C(c1ccc(N(C)C)cc1)C(c1ccc(N(C)C)cc1)N(CC)CC (centres undefined)	inactive: > 72.9 µM
NCCSSCc1ccccc1CSSCCN	inactive: > 100 µM
Clc1ccc(SCCCCCCCCCCSc2ccc(Cl)cc2)cc1	inactive: > 70.1 µM
CCOC(=O)c1c(-c2ccccc2)c(C(OC(c2ccccc2)c2c(-c3ccccc3)c(C(=O)OCC)n3ccccc23)c2ccccc2)c2ccccn12 (centres undefined)	inactive: > 100 µM
COC1/C(=C\c2ccccc2I)c2ccccc2N1C(C)=O (centres undefined)	inactive: 17.2 µM
CC(C)OC(=O)c1ccc(CCC2=CC(=O)C=CC2=O)cc1	inactive: 35.2 µM
COC(=O)CCC1(NS(=O)(=O)c2ccc(C)cc2)CCC(C(C)(C)C)CC1 (centres undefined)	inactive: 25.1 µM
Cc1ccc(OCCn2cc(Nc3ccccc3)c(=O)[nH]c2=O)cc1	inactive: > 100 µM
O=c1nc(-c2ccccc2)scc1-c1ccccc1	inactive: > 100 µM
CC(=O)NC1C(OC2C(CO)OC(OCC3OC(n4ccc(N)nc4=O)C(O)C3O)C(NC(C)=O)C2O)OC(CO)C(O)C1O (centres undefined)	inactive: > 100 µM
CCCOC1OC(CS(=O)(=O)O)C(O)C(O)C1O (centres undefined)	inactive: > 100 µM
O=C1C=CC(=CC=C2C=CN(CCCCCCCCCCC(=O)NCCCCCCCCCCCC(=O)O)C=C2)C=C1	inactive: > 100 µM
Clc1ccc(Cc2nc3cc(Cl)c(Cl)cc3n2CC2CCCN3CCCCC23)cc1 (centres undefined)	inactive: 12.7 µM
COCC1N=C(c2cc(OC)c(OC)c(OC)c2-c2cc3c(cc2[C@H](C)O)OCO3)O[C@H]1c1ccccc1 (some centres undefined)	inactive: > 100 µM
CCC1(O)C(=O)OCc2c1cc1n(c2=O)Cc2cc3ccccc3nc2-1 (centres undefined)	active: 0.184 µM
CCCCCCOC(=O)/C=C/[C@]1(CO)C/C(=C/CC(C(C)C)C(C)C)C(=O)O1	inactive: 11.5 µM
Cc1ccccc1N(CC(=O)O)S(=O)(=O)c1ccccc1	inactive: > 100 µM
CNc1ccc(-c2nc3cc(C)ccc3o2)cc1	inactive: > 100 µM
Cn1c2c(c3ccccc3c1=O)C(=O)c1ccccc1-2	inactive: 28.1 µM
CN(C)CCNC(=O)c1cccc2nc3c(nc12)-c1ccccc1C3=O	inactive: 11.5 µM
